Test results as given in patent US20240368250A1 (Ablynx, published 2024).

Legend:
[1] = target: Human serum albumin (HSA; Sigma-Aldrich Cat No. A8763) (human, UniProt P02768); experiment: SPR Biacore 8K+, HSA on C1 chip, pH 7.4, 1:1 fit
[2] = target: Mouse serum albumin (MSA; Albumin Bioscience Cat No. 2601) (mouse, UniProt P07724 25-608); experiment: SPR Biacore 8K+, MSA on C1 chip, pH 7.4, off-rate column
Chain of UniProt P07724 (P07724 25-608 limits assumed): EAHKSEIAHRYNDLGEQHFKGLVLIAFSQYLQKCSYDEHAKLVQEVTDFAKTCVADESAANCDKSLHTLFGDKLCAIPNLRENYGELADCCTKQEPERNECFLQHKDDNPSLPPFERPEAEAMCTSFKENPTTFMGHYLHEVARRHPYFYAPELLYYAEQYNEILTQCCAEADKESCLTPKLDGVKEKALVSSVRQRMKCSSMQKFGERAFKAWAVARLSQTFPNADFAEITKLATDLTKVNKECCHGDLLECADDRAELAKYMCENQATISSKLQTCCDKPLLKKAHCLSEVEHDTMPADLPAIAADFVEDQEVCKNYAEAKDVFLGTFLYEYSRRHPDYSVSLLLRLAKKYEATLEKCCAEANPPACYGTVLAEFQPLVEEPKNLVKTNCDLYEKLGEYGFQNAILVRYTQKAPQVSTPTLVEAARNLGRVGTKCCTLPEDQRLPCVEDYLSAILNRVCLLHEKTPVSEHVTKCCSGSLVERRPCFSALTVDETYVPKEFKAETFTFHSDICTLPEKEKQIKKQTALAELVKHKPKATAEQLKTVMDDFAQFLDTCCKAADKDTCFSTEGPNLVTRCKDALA

B1: TPP-66146 (Fc fusion)
chain 1: DVQLVESGGGVVQAGGSLSISCAASGGSLSNYVLGWFRQAPGKEREFVAAINWRGDITIGPPNVEGRFTISRDNAKNTGYLQMNSLAPDDTALYYCGAGTPLNPGAYIYDWSYDYWGRGTLVTVSSDKTHTCPPCPAPEAAGGPSVFLFPPKPKDTLMISRTPEVTCVVVDVSQEDPEVQFNWYVDGVEVHNAKTKPREEQFNSTYRVVSVLTVLHQDWLNGKEYKCKVSNKGLPSSIEKTISKAKGQPREPQVYTLPPCQEEMTKNQVSLWCLVKGFYPSDIAVEWESNGQPENNYKTTPPVLDSDGSFFLYSKLTVDKSRWQEGNVFSCSVMHEALHNHYTQKSLSLSLGGGGGSGGGGSGGGGSGGGGSGGGGSGGGGSGGGGS[sequence of about 120 residues omitted]
chain 2: DVQLVESGGGVVQAGGSLSISCAASGGSLSNYVLGWFRQAPGKEREFVAAINWRGDITIGPPNVEGRFTISRDNAKNTGYLQMNSLAPDDTALYYCGAGTPLNPGAYIYDWSYDYWGRGTLVTVSSDKTHTCPPCPAPEAAGGPSVFLFPPKPKDTLMISRTPEVTCVVVDVSQEDPEVQFNWYVDGVEVHNAKTKPREEQFNSTYRVVSVLTVLHQDWLNGKEYKCKVSNKGLPSSIEKTISKAKGQPREPQVCTLPPSQEEMTKNQVSLSCAVKGFYPSDIAVEWESNGQPENNYKTTPPVLDSDGSFFLVSKLTVDKSRWQEGNVFSCSVMHEALHNRFTQKSLSLSLG
notes: IgG4 FALA Fc knob-in-hole, C-terminal ALB11002 via 35GS
**Q.** With B1 as the binder, how does the Kd [1] read?
**A.** 84.9 nM

**Q.** What about the koff [1] of the same binder?
**A.** 0.00486 s⁻¹

**Q.** What about the kon [1] of the same binder?
**A.** 57200 M⁻¹ s⁻¹

**Q.** Does B1 bind [2]?
**A.** binds
